Measurements: US20210238308A1 (Chugai, published 2021)

T1: PRYSPRY domain of mouse TRIM21 with N-terminal 6xHis tag (mouse)
T1 construct: Expressed in E. coli; also called mTRIM21; mouse TRIM21.PRYSPRY
T1 chain: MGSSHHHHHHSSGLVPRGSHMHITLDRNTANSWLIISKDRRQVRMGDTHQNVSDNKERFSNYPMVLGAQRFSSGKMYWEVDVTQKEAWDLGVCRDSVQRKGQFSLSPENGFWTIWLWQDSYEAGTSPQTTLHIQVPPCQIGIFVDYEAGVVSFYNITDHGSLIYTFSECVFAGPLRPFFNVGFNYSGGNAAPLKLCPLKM

T2: PRYSPRY domain of human TRIM21 with N-terminal 6xHis tag (human)
T2 construct: Expressed in E. coli; also called hTRIM21; human TRIM21.PRYSPRY
T2 chain: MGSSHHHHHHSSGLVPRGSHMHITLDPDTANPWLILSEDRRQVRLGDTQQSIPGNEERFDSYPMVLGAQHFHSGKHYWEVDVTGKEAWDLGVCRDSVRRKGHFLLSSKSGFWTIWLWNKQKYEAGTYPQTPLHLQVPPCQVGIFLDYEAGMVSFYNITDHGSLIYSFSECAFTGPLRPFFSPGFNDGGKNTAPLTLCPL

B1: MRAH-G1d/MRAL-KT0 L314F (antibody, human IgG1, kappa)
heavy: QVQLQESGPGLVRPSQTLSLTCTVSGYSITSDHAWSWVRQPPGRGLEWIGYISYSGITTYNPSLKSRVTMLRDTSKNQFSLRLSSVTAADTAVYYCARSLARTTAMDYWGQGSLVTVSS[human IgG1 constant region with L314F (EU numbers) omitted here]
light: DIQMTQSPSSLSASVGDRVTITCRASQDISSYLNWYQQKPGKAPKLLIYYTSRLHSGVPSRFSGSGSGTDFTFTISSLQPEDIATYYCQQGNTLPYTFGQGTKVEIKRTVAAPSVFIFPPSDEQLKSGTASVVCLLNNFYPREAKVQWKVDNALQSGNSQESVTEQDSKDSTYSLSSTLTLSKADYEKHKVYACEVTHQGLSSPVTKSFNRGEC
notes: copies: 2 + 2
B2: MRAH-G1d/MRAL-KT0 L432F (antibody, human IgG1, kappa)
heavy: QVQLQESGPGLVRPSQTLSLTCTVSGYSITSDHAWSWVRQPPGRGLEWIGYISYSGITTYNPSLKSRVTMLRDTSKNQFSLRLSSVTAADTAVYYCARSLARTTAMDYWGQGSLVTVSS[human IgG1 constant region with L432F (EU numbers) omitted here]
light: B1 light
notes: copies: 2 + 2
B3: MRAH-G1d/MRAL-KT0 L314T (antibody, human IgG1, kappa)
heavy: QVQLQESGPGLVRPSQTLSLTCTVSGYSITSDHAWSWVRQPPGRGLEWIGYISYSGITTYNPSLKSRVTMLRDTSKNQFSLRLSSVTAADTAVYYCARSLARTTAMDYWGQGSLVTVSS[human IgG1 constant region with L314T (EU numbers) omitted here]
light: B1 light
notes: copies: 2 + 2
B4: MRAH-G1d/MRAL-KT0 L432I (antibody, human IgG1, kappa)
heavy: QVQLQESGPGLVRPSQTLSLTCTVSGYSITSDHAWSWVRQPPGRGLEWIGYISYSGITTYNPSLKSRVTMLRDTSKNQFSLRLSSVTAADTAVYYCARSLARTTAMDYWGQGSLVTVSS[human IgG1 constant region with L432I (EU numbers) omitted here]
light: B1 light
notes: copies: 2 + 2
B5: MRAH-G1d/MRAL-KT0 L314V (antibody, human IgG1, kappa)
heavy: QVQLQESGPGLVRPSQTLSLTCTVSGYSITSDHAWSWVRQPPGRGLEWIGYISYSGITTYNPSLKSRVTMLRDTSKNQFSLRLSSVTAADTAVYYCARSLARTTAMDYWGQGSLVTVSS[human IgG1 constant region with L314V (EU numbers) omitted here]
light: B1 light
notes: copies: 2 + 2
B6: MRAH-G1d/MRAL-KT0 L314S (antibody, human IgG1, kappa)
heavy: QVQLQESGPGLVRPSQTLSLTCTVSGYSITSDHAWSWVRQPPGRGLEWIGYISYSGITTYNPSLKSRVTMLRDTSKNQFSLRLSSVTAADTAVYYCARSLARTTAMDYWGQGSLVTVSS[human IgG1 constant region with L314S (EU numbers) omitted here]
light: B1 light
notes: copies: 2 + 2
B7: MRAH-G1d/MRAL-KT0 L314G (antibody, human IgG1, kappa)
heavy: QVQLQESGPGLVRPSQTLSLTCTVSGYSITSDHAWSWVRQPPGRGLEWIGYISYSGITTYNPSLKSRVTMLRDTSKNQFSLRLSSVTAADTAVYYCARSLARTTAMDYWGQGSLVTVSS[human IgG1 constant region with L314G (EU numbers) omitted here]
light: B1 light
notes: copies: 2 + 2
B8: MRAH-G1d/MRAL-KT0 L432D (antibody, human IgG1, kappa)
heavy: QVQLQESGPGLVRPSQTLSLTCTVSGYSITSDHAWSWVRQPPGRGLEWIGYISYSGITTYNPSLKSRVTMLRDTSKNQFSLRLSSVTAADTAVYYCARSLARTTAMDYWGQGSLVTVSS[human IgG1 constant region with L432D (EU numbers) omitted here]
light: B1 light
notes: copies: 2 + 2
B9: MRAH-G1d/MRAL-KT0 L432G (antibody, human IgG1, kappa)
heavy: QVQLQESGPGLVRPSQTLSLTCTVSGYSITSDHAWSWVRQPPGRGLEWIGYISYSGITTYNPSLKSRVTMLRDTSKNQFSLRLSSVTAADTAVYYCARSLARTTAMDYWGQGSLVTVSS[human IgG1 constant region with L432G (EU numbers) omitted here]
light: B1 light
notes: copies: 2 + 2
B10: MRAH-G1d/MRAL-KT0 L314Y (antibody, human IgG1, kappa)
heavy: QVQLQESGPGLVRPSQTLSLTCTVSGYSITSDHAWSWVRQPPGRGLEWIGYISYSGITTYNPSLKSRVTMLRDTSKNQFSLRLSSVTAADTAVYYCARSLARTTAMDYWGQGSLVTVSS[human IgG1 constant region with L314Y (EU numbers) omitted here]
light: B1 light
notes: copies: 2 + 2
B11: MRAH-G1d/MRAL-KT0 L432H (antibody, human IgG1, kappa)
heavy: QVQLQESGPGLVRPSQTLSLTCTVSGYSITSDHAWSWVRQPPGRGLEWIGYISYSGITTYNPSLKSRVTMLRDTSKNQFSLRLSSVTAADTAVYYCARSLARTTAMDYWGQGSLVTVSS[human IgG1 constant region with L432H (EU numbers) omitted here]
light: B1 light
notes: copies: 2 + 2
B12: MRAH-G1d/MRAL-KT0 L314H (antibody, human IgG1, kappa)
heavy: QVQLQESGPGLVRPSQTLSLTCTVSGYSITSDHAWSWVRQPPGRGLEWIGYISYSGITTYNPSLKSRVTMLRDTSKNQFSLRLSSVTAADTAVYYCARSLARTTAMDYWGQGSLVTVSS[human IgG1 constant region with L314H (EU numbers) omitted here]
light: B1 light
notes: copies: 2 + 2
B13: MRAH-G1d/MRAL-KT0 L432M (antibody, human IgG1, kappa)
heavy: QVQLQESGPGLVRPSQTLSLTCTVSGYSITSDHAWSWVRQPPGRGLEWIGYISYSGITTYNPSLKSRVTMLRDTSKNQFSLRLSSVTAADTAVYYCARSLARTTAMDYWGQGSLVTVSS[human IgG1 constant region with L432M (EU numbers) omitted here]
light: B1 light
notes: copies: 2 + 2
B14: MRAH-G1d/MRAL-KT0 L432K (antibody, human IgG1, kappa)
heavy: QVQLQESGPGLVRPSQTLSLTCTVSGYSITSDHAWSWVRQPPGRGLEWIGYISYSGITTYNPSLKSRVTMLRDTSKNQFSLRLSSVTAADTAVYYCARSLARTTAMDYWGQGSLVTVSS[human IgG1 constant region with L432K (EU numbers) omitted here]
light: B1 light
notes: copies: 2 + 2
B15: MRAH-G1d/MRAL-KT0 L432N (antibody, human IgG1, kappa)
heavy: QVQLQESGPGLVRPSQTLSLTCTVSGYSITSDHAWSWVRQPPGRGLEWIGYISYSGITTYNPSLKSRVTMLRDTSKNQFSLRLSSVTAADTAVYYCARSLARTTAMDYWGQGSLVTVSS[human IgG1 constant region with L432N (EU numbers) omitted here]
light: B1 light
notes: copies: 2 + 2
B16: MRAH-G1d/MRAL-KT0 L314K (antibody, human IgG1, kappa)
heavy: QVQLQESGPGLVRPSQTLSLTCTVSGYSITSDHAWSWVRQPPGRGLEWIGYISYSGITTYNPSLKSRVTMLRDTSKNQFSLRLSSVTAADTAVYYCARSLARTTAMDYWGQGSLVTVSS[human IgG1 constant region with L314K (EU numbers) omitted here]
light: B1 light
notes: copies: 2 + 2
B17: MRAH-G1d/MRAL-KT0 L314P (antibody, human IgG1, kappa)
heavy: QVQLQESGPGLVRPSQTLSLTCTVSGYSITSDHAWSWVRQPPGRGLEWIGYISYSGITTYNPSLKSRVTMLRDTSKNQFSLRLSSVTAADTAVYYCARSLARTTAMDYWGQGSLVTVSS[human IgG1 constant region with L314P (EU numbers) omitted here]
light: B1 light
notes: copies: 2 + 2
B18: MRAH-G1d/MRAL-KT0 L314R (antibody, human IgG1, kappa)
heavy: QVQLQESGPGLVRPSQTLSLTCTVSGYSITSDHAWSWVRQPPGRGLEWIGYISYSGITTYNPSLKSRVTMLRDTSKNQFSLRLSSVTAADTAVYYCARSLARTTAMDYWGQGSLVTVSS[human IgG1 constant region with L314R (EU numbers) omitted here]
light: B1 light
notes: copies: 2 + 2
B19: MRAH-G1d/MRAL-KT0 L314W (antibody, human IgG1, kappa)
heavy: QVQLQESGPGLVRPSQTLSLTCTVSGYSITSDHAWSWVRQPPGRGLEWIGYISYSGITTYNPSLKSRVTMLRDTSKNQFSLRLSSVTAADTAVYYCARSLARTTAMDYWGQGSLVTVSS[human IgG1 constant region with L314W (EU numbers) omitted here]
light: B1 light
notes: copies: 2 + 2
B20: MRAH-G1d/MRAL-KT0 L314N (antibody, human IgG1, kappa)
heavy: QVQLQESGPGLVRPSQTLSLTCTVSGYSITSDHAWSWVRQPPGRGLEWIGYISYSGITTYNPSLKSRVTMLRDTSKNQFSLRLSSVTAADTAVYYCARSLARTTAMDYWGQGSLVTVSS[human IgG1 constant region with L314N (EU numbers) omitted here]
light: B1 light
notes: copies: 2 + 2
B21: MRAH-G1d/MRAL-KT0 L432E (antibody, human IgG1, kappa)
heavy: QVQLQESGPGLVRPSQTLSLTCTVSGYSITSDHAWSWVRQPPGRGLEWIGYISYSGITTYNPSLKSRVTMLRDTSKNQFSLRLSSVTAADTAVYYCARSLARTTAMDYWGQGSLVTVSS[human IgG1 constant region with L432E (EU numbers) omitted here]
light: B1 light
notes: copies: 2 + 2

Molecular target: T3, human FcRn (human, UniProt P55899 partial chain; P61769 partial chain, limits assumed)
T3 construct: also called hFcRn
Assay: SPR, Protein L capture

hFcRn binding level ratio (variant/control antibody) | Binder
0.27 | B1
0.65 | B2
0.35 | B3
0.59 | B4
0.01 | B5
0.44 | B6
0.38 | B7
0.3 | B8
0.56 | B9
0.02 | B10
0.05 | B11
0.26 | B12
0.75 | B13
0 | B14
0.57 | B15
0.01 | B16
0.02 | B17
0.01 | B18
0.27 | B19
0 | B20
0.91 | B21

Molecular target: T1, PRYSPRY domain of mouse TRIM21 with …
Assay: SPR, Protein L capture

binding result | mTRIM21 binding level ratio (variant/control antibody) | Binder
no binding (tested: 100 nM) | – | B1
– | 1.02 | B2
– | 2 | B3
– | 2.29 | B4
– | 2.36 | B5
– | 2.09 | B6
no binding (tested: 100 nM) | – | B7
– | 0.479 | B8
– | 1.81 | B9
– | 3.13 | B10
– | 1.81 | B11
no binding (tested: 100 nM) | – | B12
– | 2.15 | B13
– | 2.01 | B14
– | 1.61 | B15
no binding (tested: 100 nM) | – | B16
– | 2.05 | B17
– | 2.37 | B18
– | 3.01 | B19
no binding (tested: 100 nM) | – | B20
– | 2.23 | B21

Molecular target: T2, PRYSPRY domain of human TRIM21 with …
Assay: SPR, Protein L capture

binding result | hTRIM21 binding level ratio (variant/control antibody) | Binder
no binding (tested: 100 nM) | – | B1
– | 0.765 | B2
– | 1.08 | B3
– | 0.657 | B4
– | 1.03 | B5
– | 0.98 | B6
no binding (tested: 100 nM) | – | B7
– | 0.397 | B8
– | 0.245 | B9
– | 1.11 | B10
– | 0.864 | B11
no binding (tested: 100 nM) | – | B12
– | 1.1 | B13
– | 0.472 | B14
– | 0.462 | B15
no binding (tested: 100 nM) | – | B16
– | 0.989 | B17
– | 0.409 | B18
– | 0.777 | B19
no binding (tested: 100 nM) | – | B20
– | 0.996 | B21
